We go through 19 variants from the RNAGym collection of RNA variant scans (doi:10.1073/pnas.2313332121).

First the molecules themselves.
B1: TPR 5TU (parent)
chain: GGAUCUUCUCGAUCUAACAAAAAAGACAAAUCUGCCACAAAGCUUGAGAGCAUCUUCGGAUGCAGAGGCGGCAGCCUUCGGUGGCGCGAUAGCGCCAACGUUCUCAACUAUGACACGCAAAACGCGUGCUCCGUUGAAUGGAGUUUAUCAUG

Variants at the background level are over-represented here.

The data set covers variants of B1. The data set can be described thus: polymerase ribozyme fitness, log enrichment relative to wild type (log ratio); higher = more active; in vitro selection for triplet polymerase activity. An outline of the steps:
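Each subunit of a heterodimeric triplet polymerase ribozyme was represented by a PCR-built, transcribed mutant library that underwent triplicate single-round in vitro selection with frozen incubation at −7 °C. Extended constructs were recovered by gel excision, streptavidin-bead capture and RT-PCR, and Illumina sequencing of input and output libraries kept genotypes with ≥10 input reads and ≥1 read per output. Fitness is the logarithm of genotype enrichment relative to wild-type enrichment, from inverse-variance-weighted replicate averages, with a logarithm base of 2.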
Regarding GGAUCUUCUCGAUCUAACAAACAAGAUAAAUCUGCCACAAAGCUUGAGACCAUCUUCGGAUGCAGAGGCGGCAGCCUUCUGUGGCGCGAUAGCGCCAACGUUCUCAACUAUGACACGCAAAACGCGUGCUCCGUUGAAUGGAGGUUAUCAUG, the “polymerase ribozyme fitness (log ratio)” value is at most -4.2.

In the case of GGAUCUUCUCGAUCUAACAAUAAAGACAAAUCUGCCACAAAGCUUGAGAGCAUCUUCGGAUGCAGACGGGGCAGCCUUAGGUGGCGCGAUAGCGCUAACGUUCUCAACUAUGACACGCAAAACGCGUGUUCCGUUGAAUGGAGUUUAUCAUG, the “polymerase ribozyme fitness (log ratio)” value was at most -4.2.

In the case of GGAUCUUCUCGAUCUAACAAACAAGACAAAUCUGCCACAAUGCUUGAGAGCACCUUCGGAUGCAGAGGCGGCAGUCUUCGGUGGCGCGAUAGCGCCAACGUUCUCAACUAUGACACGCAAAACGCGUGCUCCGUUGAAUGGAGUUUAUCAUG, the “polymerase ribozyme fitness (log ratio)” value is -2.58.

In the case of GGAUCUUCUCGAUCUAACAAUAAAGACAAAUCUGCCACAAAGCUUGAGAGCAUCUUCGGAUGCAGAGGCGCCAGCCUUGGGUGGCGCGAUAGCGCCAACGUUCUCAUCUAUGACACGCAAAACGCGUGCUCCGUUGAAUGGCGUUUAUCAUG, the “polymerase ribozyme fitness (log ratio)” value was at most -4.2.

On to GGAUCUUCUCGAUCUAACAAACAAGACCAAUCUGCCACAAAGCUUGAGAGCAGCUUCGGAUGCAGAGGCGGCAACCUUCGGUCGUGCGAUAGCGCCAACGUUCUCAACUAUGACACGCAAAACGCGUGCUCCGUUGAAUGGAGUUUAUCAUG, for which the “polymerase ribozyme fitness (log ratio)” value was at most -4.2.

As to GGAUCUUCUCGAUCUAACAAACAAGGCCAAUCUGCCACAAAGUUUGAGAGCAUCUUCGGAUGCAGAGGCGGCAGCCUUCGGUGGCGCGAUAGCGGAAACGUUCUCAACUAUGACACGCAAAACGCGUGCUCCGUUGAAUGGAGUUUAUCUUG, the “polymerase ribozyme fitness (log ratio)” value was at most -4.2.

For GGAUCUUCUCGAUCUAACAAACAAGACAAAUCUGCCACAAAGCUUGAGAGCAUCUUCGGAUGCAGAGGCGGCAGCCUUCGGUGGCGCGAUGGCGGCAACGUUCUCAACUAUGACACGCAAAACGCGUGCUCCGUUGAAUGAAGUUUAUAAUG, the “polymerase ribozyme fitness (log ratio)” value is at most -4.2.

As to GGAUCUUCUCGAUCUAACAAACAAGACAAAUCUGCCCCAAAGCUUGAGAGCAUCUUCGGAUGCAGAGGCGGCAGCCUUCGGUGGCGCGAUAGCGCCAACGUUCUCAACUAUGACACGCAAAACGCGUGCUCCGUUGAAUGGAGUUUAUCAUG, the “polymerase ribozyme fitness (log ratio)” value was -0.165.

For the variant GGAUCUUCUCGAUCUAACAAUAAAGACAAAUCUCCCACAAAGCUUGAGAGCAUCUUCGGAUGCAGAGGCGGCAGCCUUCGGUGGCGCGAUAGCGCCAAAGUUCUCAACUAUGACAAGCAAAACGCGUGCUCCGUUGAAUGGAGUUUAUCAUG, the “polymerase ribozyme fitness (log ratio)” value was at most -4.2.

Consider GGAUCUUCUCGAUCUAACAAACAAGACAAUUCUGCCACAAAGCUUGAGAGCAUCUUCGGAUGCAGAGGCGGCAGCAUUCGGUGGCGCGAUAGCGCCAACGUUCUCAACUAUGACACGCAAAACACGUGCUCCGUUGAAUGGAGUUUAUCAUG, for which the “polymerase ribozyme fitness (log ratio)” value was at most -4.2.

On to GGAUCUUCUCGAUCUAACAAACAAGACAACUCUGCCACAAAGCUUGAGACCAUCUUCGGAUGCAGAGGCGGCAGGCUUCGGUGGCGCGAUAGCGCCAAAGUUCUCAACUAUGACACGCAAGACGCGUGCUCAGUUGAAUGGAGUUUAUCAUG, for which the “polymerase ribozyme fitness (log ratio)” value was at most -4.2.

In the case of GGAUCUUCUCGAUCUAACAAUAAAGACAAACCUGCCACAAAGCUUGAGAGCAUCUUCGGAUGCAGAGGCGGCGGCCUUCGGUGGCGCGAUAGCUCCAACGUUCUCAACUAUGUCACGCAAAACGCGUGCUCCGUUGAAUGGAGUUUAUCAUG, the “polymerase ribozyme fitness (log ratio)” value is -3.49.

Take GGAUCUUCUCGAUCUAACAAACAAGACAAAUCUGCCACAACGCUUGAGCGCAACUUCGGAUGCAGAUGCGGCAGCCUUCGGUGGCGCGAUAGCGCCAACGUUCUCAACUAUGACACACAAAACGCGUGCUACGUUGAAUGGAGUUUAUCAUG: the “polymerase ribozyme fitness (log ratio)” value is at most -4.2.

On to GGAUCUUCUCGAUCUAACAAUAAAGACAAAUCUGCCACAAAGCUUGAGAGCAUCUUCAGAUGCAGAGGCGGCAGCCAUCGGUGGCGCGAUAGCGCCAACGUUCUCAACUAUGACACGCAAAACGCGUGCUCCGUUGAAUGGAGUUUAUCAUG, for which the “polymerase ribozyme fitness (log ratio)” value was at most -4.2.

For the variant GGAUCUUCUCGAUCUAACAAACAAGACAAGUCUGCCACAAAGCUUGAGAGCAGCUUCGGAUGCAGAGGCGGCAGCGUUCGGUGGAGCGAUAGCGUCAACGUUCUUAACUAUGACACGCAAAACCCGUGCUCCGUUGAAUGGUGUUUAUGAUG, the “polymerase ribozyme fitness (log ratio)” value is at most -4.2.

GGAUCUUCUCGAUCUAACAAUAAAGACAAAGCUUCCACAAAGCUUGAUAGCAUCUUCGGAUGCAGAGGCGGCAGCAUUCGGUGGCACAAUAGCGCCAACGUUCUCAACUAUGACACGCAAAACGCGUGCUCCGUUGAAUGGACUUUAUCAUG: the “polymerase ribozyme fitness (log ratio)” value is at most -4.2.

GGAUCUUCUCGAUCUAACAAUAAAGACAAAUCUGCCACAAAGCUUGAGAGCAUCUUCGGAUGCACAGGCGGCAGCCUUCGGUGGCGCGAUAACGCCAACGUUCUCAACUAUGACACGCAAAACGCGUGCUCCGUUGCAUGCAGUUUAUCAUG: the “polymerase ribozyme fitness (log ratio)” value is at most -4.2.

Take GGAUCUUCUCGAUCUAACAAACAAGACAAAUCUGCCACAAAGCUUGAGCGCAUCUUCGGAUGCAGAGGCGGCAGCCUUCGGUCGCGCGAGAGCGCCAACGUUCUCAACUAUGAUACGCAAAACGCGUGCUCCGUUGAAUGGAGUUUAUCAUG: the “polymerase ribozyme fitness (log ratio)” value was at most -4.2.

Turning to GGAUCUUCUCGAUCUAACAAACAAGUCAAAUCGACCACAAAGCUUGAGAGCAUCAUCGGAUGCAGAGGCGGCUGCCGUCGGUGGCACGAUAGCGCCAACGUUCUCAACUAUGACACGCAAAACGCGUGCUCCGUUGAAUGGAAUUUAUCAUG, the “polymerase ribozyme fitness (log ratio)” value was at most -4.2.
